Test results reported in paper PMC4336329 (PLoS ONE, 2015).
Among all 310,000 compounds or so, about 2,200 (0.71%) showed an effect of 50% or more. The effect is printed as a negative number. The list shows a part of the results.

Target: human ether-à-go-go-related gene (hERG) potassium channel (human, UniProt Q12809)
Assay: primary screen, population patch clamp on CHO cells stably expressing hERG

Sequence of human ether-à-go-go-related gene (hERG) potassium channel (Q12809 whole entry, looked up): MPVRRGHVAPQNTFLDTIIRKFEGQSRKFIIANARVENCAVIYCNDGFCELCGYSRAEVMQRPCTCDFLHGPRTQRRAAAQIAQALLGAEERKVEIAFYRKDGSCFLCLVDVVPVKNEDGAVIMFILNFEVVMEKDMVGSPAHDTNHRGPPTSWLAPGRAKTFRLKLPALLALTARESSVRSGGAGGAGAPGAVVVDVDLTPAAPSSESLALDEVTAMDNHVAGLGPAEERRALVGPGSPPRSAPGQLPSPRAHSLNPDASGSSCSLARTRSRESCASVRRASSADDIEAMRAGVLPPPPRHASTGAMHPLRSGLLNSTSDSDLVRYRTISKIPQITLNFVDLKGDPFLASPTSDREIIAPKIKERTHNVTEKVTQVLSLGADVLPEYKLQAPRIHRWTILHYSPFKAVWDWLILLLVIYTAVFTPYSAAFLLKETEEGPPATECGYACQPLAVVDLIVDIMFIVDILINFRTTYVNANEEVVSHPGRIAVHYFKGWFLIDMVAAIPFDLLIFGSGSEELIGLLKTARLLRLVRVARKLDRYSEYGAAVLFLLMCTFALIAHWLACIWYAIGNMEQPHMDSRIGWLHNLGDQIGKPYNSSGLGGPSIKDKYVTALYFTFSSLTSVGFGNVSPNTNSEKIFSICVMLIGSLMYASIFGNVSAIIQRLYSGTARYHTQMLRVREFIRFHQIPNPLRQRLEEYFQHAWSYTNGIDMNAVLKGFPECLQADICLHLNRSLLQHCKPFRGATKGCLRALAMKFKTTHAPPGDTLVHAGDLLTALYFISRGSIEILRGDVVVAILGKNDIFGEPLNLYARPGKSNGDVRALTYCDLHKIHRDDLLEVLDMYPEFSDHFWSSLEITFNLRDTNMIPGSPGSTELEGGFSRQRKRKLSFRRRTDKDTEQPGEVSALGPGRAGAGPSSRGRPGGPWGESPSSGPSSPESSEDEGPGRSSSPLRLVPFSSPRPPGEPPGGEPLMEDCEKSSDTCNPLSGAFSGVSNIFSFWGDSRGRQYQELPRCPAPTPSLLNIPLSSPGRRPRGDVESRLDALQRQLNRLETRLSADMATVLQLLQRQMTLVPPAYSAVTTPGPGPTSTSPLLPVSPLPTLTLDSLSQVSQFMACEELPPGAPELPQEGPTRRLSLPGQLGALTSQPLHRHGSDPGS

Compound | hERG current change (%, negative = inhibition) at 1uM [%]
O=C(N/N=C/c1cc(Cl)ccc1O)c1cccnc1 | 15.1
Cc1ccccc1-n1c(=O)cc(NCC2CCCO2)[nH]c1=O (centres unmarked) | 8.86
Brc1ccc(-c2csc3ncnc(-n4nnc5ccccc54)c23)cc1 | 3.56
Cc1ccc(NC(=O)CSc2nnc(-c3cccnc3)s2)cc1 | -0.823
COc1ccc(OCc2ccc(C(=O)O)cc2)cc1 | 13.5
O=C(COc1ccc(Cl)cc1Cl)Nn1c(=S)[nH]c2ncccc2c1=O | 8.03
CCN(CC)CCCNC(=O)CCC(=O)Nc1ccc2nc(N3CCC(C)CC3)cc(C)c2c1 | 8.55
CCC(C)(C)n1nnnc1C(c1cc2ccc(OC)cc2[nH]c1=O)N1CCc2ccccc21 (centres unmarked) | 6.76
Cc1ccc(S(=O)(=O)N2CCN(Cc3ccco3)CC2)c(C)c1 | 16.2
CCCCCCCCCCOC(=O)Cn1c(COc2ccc(OC)cc2)[n+](C)c2ccccc21.[Cl-] | -70.9
CCCCNC(=O)N(O)C1N(/N=C/c2ccccc2O)C(=S)SC1(C)C (centres unmarked) | 10.6
Cc1sc2ncnc(N3CCC(C(=O)NNC(=O)COc4ccccc4Cl)CC3)c2c1C | -0.552
COc1cccc(CNC(=O)CCC(=O)N2Cc3cccc(OC)c3Oc3ncccc32)c1OC | 10.7
FC(F)(F)c1ccc(Cl)c(-n2c(-c3cc(C4CC4)[nH]n3)n[nH]c2=S)c1 | 14.4
O=C(CCC(=O)N1CCN(c2ccc(Cl)c(Cl)c2)CC1)c1ccccc1 | 12.8
O=S(=O)(c1ccccc1)N(Cc1ccc(Cl)cc1)c1ccncc1 | 8.2
CCN1CCN(C(=O)c2c(-c3c(F)cccc3Cl)noc2C)CC1.Cl | 8.1
Fc1cc(F)c(F)c(SCCc2ccncc2)c1F | 12.6
COc1ccc(CCn2c(C)nc3ccccc3c2=O)cc1OC | 13
Cc1c(C(=O)NC2CCCCC2C)oc2ccccc12 (centres unmarked) | 11.2
COc1ccc(S(=O)(=O)N2CCN(C)CC2)cc1C | 13.5
C=CCNC(=O)NC(=O)COC(=O)CCCSc1nc2ccccc2[nH]1 | 11.5

Compound | hERG current change (%, negative = inhibition) at 1uM [%]
CCOc1ccc(S(=O)(=O)NCCC(=O)NC2=NCCS2)cc1 | 5.41
COc1ccc2oc(=O)c(C(=O)N3CCN(c4ccccc4C)CC3)cc2c1 | 6.39
COC(=O)c1ccc2c(c1)SC1=C(CCCC1=O)N2 | 11.9
O=C(COC(=O)c1ccc(OC(F)F)cc1)Nc1cccc(S(=O)(=O)NC2=NCCC2)c1 | 9.21
O=c1cc(CN2CCC3(CC2)OCCO3)c2c(ccc3ccccc32)o1 | 6.73
O=C(Nc1ccc2cn[nH]c2c1)c1ccc(S(=O)(=O)N2CCOCC2)cc1 | -14.4
Cc1cccc(N(C(=O)c2snc(C(N)=O)c2N)C(C(=O)NCC2CCCO2)c2ccc3ncccc3c2)c1 (centres unmarked) | 4.63
CCOC(=O)N1CCN(C(=O)Nc2ccc3nc(C)sc3c2)CC1 | 12.3
Cc1ccc(C)c(NC(=O)CN(C)C(=O)c2sccc2C)c1 | 13.8
O=C1CN(C(=O)COc2ccccc2)CCN1 | 14.2
COc1cc2nc(=S)n3[nH]c(COc4ccccc4C)nc3c2cc1OC | 18
COc1ccc(O)c(/C=N/n2c(-c3ccco3)csc2=Nc2cccnc2)c1 | 17.4
O=C(CSc1nc(N2CCOCC2)nc(N2CCOCC2)n1)Nc1cccc(C(F)(F)F)c1 | 12.3
COc1ccc(N2C(=O)c3ccccc3NC2c2ccc(NC(C)=O)cc2)c(OC)c1 (centres unmarked) | 7.67
COc1ccc(CNC2CCCc3ccccc32)cc1OC.O=C(O)C(=O)O (centres unmarked) | 2.67
O=C(O)/C=C\C(=O)O.c1ccc(C(OCCN2CCN(c3ncccn3)CC2)c2ccccc2)cc1 | -4.59
CCOC(=O)CSc1ncnc2c1nnn2-c1ccc(F)cc1 | -3.23
S=c1[nH]nc(-c2ccco2)n1/N=C/c1ccc(Cl)cc1Cl | -1.27
CC1(COS(N)(=O)=O)CCCCC1 | 10.7
CCCN1CCN(CCCNC(=O)Cn2ncc3c4ccccc4n(C)c3c2=O)CC1 | -10.1
O=C(CNCc1ccc(Cl)cc1)Nc1ccc(C(=O)N2CCCCCC2)cc1.O=C(O)C(=O)O | 4.84
CCOc1ccccc1NC(=O)CSc1ccc2nnc(-c3cccnc3)n2n1 | -12.6

Compound | hERG current change (%, negative = inhibition) at 1uM [%]
COc1ccc2[nH]c(=O)c(C(c3nnnn3CC3CCCO3)N3CCCCC3)cc2c1 (centres unmarked) | 16.5
CCOC(=O)c1c(C)[nH]c(C(=O)Nc2ccc(C)c(Cl)c2)c1C | 8.68
CCc1nn(CC(=O)N2CCN(c3ccc(F)cc3)CC2)c(=O)c2cc3occc3n12 | 4.01
Cc1ccc(S(=O)(=O)N2CCCC2CNC(=O)C(=O)Nc2ccccc2)cc1 (centres unmarked) | 5.36
CCC(CO)NS(=O)(=O)c1cc(-c2nn(C)c(=O)c3ccccc23)ccc1C (centres unmarked) | 1.43
COc1ccc(C2CC(=O)c3sc(NC(C)=O)nc3C2)cc1 (centres unmarked) | 9.59
O=C(Nc1nc(-c2ccc(F)cc2)cs1)c1ccc(N2C(=O)CCC2=O)cc1 | 12.5
O=C(O)c1ccccc1NC(=O)c1cc(-c2ccccc2)nc2ccccc12 | 13.9
CC1CCCC(NC(=O)COC(=O)CCc2ccccc2)C1C (centres unmarked) | -1.67
N#CC1=C(N)Oc2cc(O)ccc2C1c1ccc(Br)s1 (centres unmarked) | 19.7
Cc1nn(CC(=O)N2CCc3ccccc3C2)c(C)c1Cl | 0.55
COc1cccc(COC(=O)C2CCN(S(=O)(=O)c3ccc(Cl)cc3)CC2)c1OC | 5.7
COc1ccc(S(=O)(=O)Nc2ccc(F)c(Cl)c2)cc1OC | 11.8
Cc1ccc(Cn2nnnc2CN2CCC(n3nnc4cc(C)ccc43)CC2)cc1 | -22.6
COc1ccc(CC(=O)Nc2ccc(N(C)C)c3ccccc23)cc1 | 7.73
O=C1/C(=C/c2cccnc2)Sc2ccccc21 | 9.58
CN(Cc1ccccn1)C(=O)CC1C(=O)NCCN1Cc1cccc(Oc2ccccc2)c1 (centres unmarked) | 4.71
CC(C)C(NC(=O)c1c(F)cccc1F)C(=O)NCCc1ccc(S(N)(=O)=O)cc1 (centres unmarked) | 9.12
COc1ccc(-c2cc(-c3cccs3)c(C#N)c(SCC(=O)NCc3ccccc3)n2)cc1 | 14.4
O=C(NC(=S)Nc1ccc2[nH]c(=O)[nH]c2c1)c1ccccc1[N+](=O)[O-] | -4.59
COc1ccc(S(=O)(=O)N2CCOC2CNC(=O)C(=O)NCc2ccccc2Cl)cc1 (centres unmarked) | 6.01
O=C(CNCc1ccco1)Nc1cc(S(=O)(=O)N2CCOCC2)ccc1N1CCCC1 | 4.85

Compound | hERG current change (%, negative = inhibition) at 1uM [%]
CCOc1ccc(N=C2SCCCN2C)cc1.I | 8.98
CCN1C(=O)C(=O)N(CC(=O)Nc2ccccc2OC(F)F)C1=O | 7.18
Cc1cccc(NC(=O)C2CCCN(S(=O)(=O)c3ccc4[nH]c(=O)ccc4c3)C2)c1 (centres unmarked) | 4.13
O=C(NCc1ccncc1)c1cc(C(=O)C2CCCCC2)c[nH]1 | 3.94
Cc1cc(CNC(=O)Cc2c(F)cccc2Cl)nn1C | 2.53
O=C(CNS(=O)(=O)c1ccccc1)NCC(=O)OCc1ccc(C(=O)c2ccccc2)cc1 | 12.6
O=C(NCc1ccc(F)cc1)C1CCCN(c2nc3ccsc3c(=O)s2)C1 (centres unmarked) | -6.94
O=C(O)c1ccccc1Nc1ccc([N+](=O)[O-])cc1C(=O)O | 12.7
Cn1cnnc1SCC(=O)Nc1ccc(N2CCCCC2)cc1 | 12.1
c1ccc(CN(Cc2cccs2)C(c2cccs2)c2nnnn2C2CCCC2)cc1 (centres unmarked) | 5.97
CCN(CC)c1ccc(CNCCc2ccccc2F)cc1.Cl | 5.56
COc1ccccc1-n1c(O)c(/C=N/N2CCCCC2)c(=O)n(-c2ccccc2OC)c1=S | 10.8
O=C1NCC(O)=C1C=NCCO | 6.39
NC(=O)COc1ccccc1/C=C1/SC(=O)N(CC(=O)N2CCc3ccccc3C2)C1=O | -3.54
CCN(CC)c1ccc(NC(=O)c2ccccc2F)cc1S(=O)(=O)Nc1ccccc1OC | 10.3
Cn1c(N)c(-c2ccccc2)c2ccc([N+](=O)[O-])cc2c1=O | 14.8
CCOc1ccc(S(=O)(=O)N2CCC(C(=O)NCCc3ccc(S(N)(=O)=O)cc3)CC2)cc1 | 7.53
Cc1cc(C)c(C#N)c(=N)o1 | 8.04
O=C(Nc1nc(-c2cccs2)c(C(=O)C(F)(F)F)s1)c1ccco1 | 22.5
Cc1cc(OCC(=O)NCCCn2ccnc2)c2c(C)c(C)c(=O)oc2c1 | -8.82
